Data published in patent publication US20230183352A1 (published 2023).

Columns and labels:
[1] = biological target: T1, Biotin QP004.3 (biotin-PDL1-FC) (human, UniProt Q9NZQ7 part only, limits assumed, biotin label, site not stated); experiment: PD-L1 binding ELISA, antibody coated, biotin-PDL1-FC titrated
T1 construct: In-house protein QP004.3

[2] = biological target: T2, Biotin QP004.3 (biotin-PDL1-FC) (human, UniProt Q9NZQ7 part only, limits assumed, biotinylated (sites not given)); experiment: as above
[3] = biological target: T2, Biotin QP004.3 (biotin-PDL1-FC); experiment: PD-L1/PD-1 blocking ELISA, PD1-FC coated; row labelled EC50; competitor PD1-FC
T2 sequence (Q9NZQ7 19-238 limits assumed): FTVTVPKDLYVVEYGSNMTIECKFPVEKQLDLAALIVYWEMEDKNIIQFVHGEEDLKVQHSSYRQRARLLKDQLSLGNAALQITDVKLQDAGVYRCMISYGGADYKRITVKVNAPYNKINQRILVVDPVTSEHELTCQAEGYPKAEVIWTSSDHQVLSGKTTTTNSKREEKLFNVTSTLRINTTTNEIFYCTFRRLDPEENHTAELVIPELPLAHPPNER

B1: QP3721116 (bispecific antibody, human IgG1, kappa)
heavy: [here about 100 residues without letters]DSYYYYFWYDYWGQGTLVTVSS[here human IgG1 constant region without letters]GGGSGGGGSGGGGSGGGGSEVQLLESGGGLVQPGGSLRLSCAASGFTYGTYAMSWFRQAPGKGREGVACIDIYGRASYTDPVKGRFTISQDNSKNTLYLQMNSLKAEDTAVYYCAARDFGYCTASWVHEGFSRYWGQGTLVTVSS
light: [here about 100 residues without letters][here about 120 residues without letters]
notes: also called QD3721116 (QP11151116/QP322)
- binding result [1]: binds

B2: QP3721116 (bispecific antibody, human IgG1, kappa)
light: [here about 100 residues without letters][here about 120 residues without letters]
heavy: [here about 100 residues without letters]DSYYYYFWYDYWGQGTLVTVSS[here human IgG1 constant region without letters]GGGSGGGGSGGGGSGGGGSEVQLLESGGGLVQPGGSLRLSCAASGFTYGTYAMSWFRQAPGKGREGVACIDIYGRASYTDPVKGRFTISQDNSKNTLYLQMNSLKAEDTAVYYCAARDFGYCTASWVHEGFSRYWGQGTLVTVSS
notes: Anti-CLDN18.2 IgG with the anti-PD-L1 VHH QP322 at the C-terminal of the heavy chain by linker (G4S)4; also called QD3721116 (QP11151116/QP322)
- EC50 [2]: 5.92 ng/mL
- IC50 [3]: 4.89 nM
